Reference: PubChem BioAssay AID686971 (National Center for Advancing Translational Sciences (NCATS), 2013)
Among all 360,000 compounds or so, about 7,500 (2.1%) were called active. Inconclusive means that the source gave no clear call. Such entries were picked first, then a sample of the others. The call rests on the fitted dose curve; in most records, active means well fitted cell-killing curve with a large enough effect; inconclusive means small, poorly fitted or top-dose-only effect, or effect the other way, or another doubt; inactive means no such curve, though single readings can be large or run the other way. No potency is given beside an inconclusive call; the fits are too rough.

Assay: qHTS for induction of synthetic lethality in tumor cells producing 2HG: qHTS for the HT-1080-IDH1KD cell line
Settings: HT-1080 IDH1 knockdown viability, ATP luminescence, 48 h; series mostly up to 46.1 µM
In short: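 Knockdown cells (IDH1KD HT-1080) received compounds 2 h after plating at 750 cells/well and were kept 48 h at 37 °C in 5% FBS RPMI. A CellTiter-Glo luminescence read gave % activity for curve fitting.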
Potency means the concentration at half of the fitted maximal effect; tags describe the fitted curve by direction and shape.

| SMILES | Potency |
| --- | --- |
| O=C1NC(=O)C(=Cc2ccc(SC3CCCCC3)o2)C(=O)N1 | inconclusive [cytotoxic, single point] |
| COC(=O)C1=C(c2ccc(Cl)c(C(F)(F)F)c2)C[C@@H]2CC[C@H]1N2C(=O)NCCOc1ccc(OC)cc1 | inconclusive [cytotoxic, single point] |
| CCCCn1c(O)c(C(CC)=NC(C)c2ccccc2)c(=O)[nH]c1=O (centres undefined) | inconclusive [cytotoxic, single point] |
| Oc1ccc2ccccc2c1CN1CC=C(c2ccccc2)CC1 | inactive |
| O=C(N/N=C1/CN2CCC1CC2)c1cc2ccccc2cc1O | inconclusive [cytotoxic, partial curve] |
| CCCCCSc1cc(OC)c(CCNC)cc1OC | active: 20.6 µM |
| CC(C)(C)n1nnnc1C(CCc1ccccc1)N1CCC(n2c(=O)[nH]c3ccccc32)CC1 (centres undefined) | inconclusive [cytotoxic, single point] |
| Cc1cccc(OP(=O)(Nc2ccc(F)cc2)Oc2cccc(C)c2)c1 | inconclusive [cytotoxic, single point] |
| Cc1ccc(N=Nc2c(O)[nH]c(=O)[nH]c2=O)cc1S(=O)(=O)Nc1ccc(Br)cc1 | inconclusive [cytotoxic, partial curve, poor fit] |
| c1cc2c(cc1NC1=NCCO1)CCCC2 | inconclusive [cytotoxic, single point] |
| O=[N+]([O-])c1cccc(NP(=O)(Oc2ccccc2)Oc2ccccc2)c1 | inconclusive [cytotoxic, single point] |
| O=C1NC(=S)NC(=O)C1=Cc1ccc(Br)s1 | inconclusive [cytotoxic, single point] |
| COc1ccc2ccc(O)c(CN3CC=C(c4ccccc4)CC3)c2c1 | inactive |
| Cc1cc(=O)oc2cc3c(cc12)CCCN3 | inactive |
| C#CCN(C)[C@H](C)Cc1ccccc1 | inactive |
| COc1ccc(NC(=S)NC(NC(=O)CF)C(Cl)(Cl)Cl)cc1[N+](=O)[O-] (centres undefined) | inactive |
| O=C1NCN(c2ccccc2)C12CCN(CCCC(c1ccc(F)cc1)c1ccc(F)cc1)CC2 | active: 9.2 µM |
| COC(=O)C1=C(c2ccc(F)cc2OCc2ccccc2)C[C@@H]2CC[C@H]1N2C(=O)NCc1ccc(OC)cc1 | inactive |
| Cn1c(=O)oc2cc(S(=O)(=O)N3CCc4ccccc43)ccc21 | inconclusive [cytotoxic, single point] |
| COc1ccc(CC2NCC(O)C2OC(C)=O)cc1 (centres undefined) | active: 0.13 µM |
| O=C(Nc1cc(Cl)cc(Cl)c1)N1Cc2ccccc2-n2nncc2C1 | inactive |
| Cc1ccc(-c2cc(-c3ccccc3)cc(-c3ccccc3)[n+]2-c2ccccc2)cc1 | active: 11.6 µM |
| O=C(NN=Cc1ccc(N(CCCl)CCCl)cc1Cl)c1cccnc1 | inactive |
| C[N+](C)(C)CC1CCCc2ccccc2C1=O (centres undefined) | active: 5.8 µM |
| NC(=S)c1cn(C2OC(CO)C(O)C2O)c2ncnc(N)c12 (centres undefined) | active: 1.3 µM |

| SMILES | Potency |
| --- | --- |
| C=C1C(=O)OC2C1CCC(C)C1(O)C=CC(=O)C21C (centres undefined) | inconclusive [cytotoxic, single point] |
| COc1ccc(-c2ccc3c(c2)CN(C(=O)NC2CCCCC2)Cc2cnnn2-3)cc1 | inconclusive [cytotoxic, single point] |
| O=C1NC(=O)C2(Cc3ccccc3N3CCCC32)C(=O)N1c1ccccc1 (centres undefined) | inactive |
| COc1cccc(NP(=O)(Oc2ccccc2Cl)Oc2ccccc2Cl)c1 | inconclusive [cytotoxic, single point] |
| CCN(CC)S(=O)(=O)c1ccc(C)c(NCC(=O)Nc2ccc(C#N)c(Cl)c2)c1 | inconclusive [cytotoxic, partial curve] |
| COc1ccc2c(c1)C(c1ccc(N(CCCl)CCCl)cc1)=NCC2 | active: 25.9 µM |
| O=c1c2ccccc2nc(-c2ccco2)n1-c1ccccc1 | inactive |
| CCOP(=O)(OCC)C(NC(=O)c1ccc(C)cc1)=C(Cl)Cl | inactive |
| COc1ccc(/C=C/C(=O)c2ccccc2)cc1COc1ccc(F)cc1 | inconclusive [cytotoxic, single point] |
| Oc1ccc(Cl)cc1Cc1cc(Cl)ccc1O | active: 23.1 µM |
| CCC1CN1P(=O)(Oc1ccc(Cl)cc1)N1CC1CC (centres undefined) | inactive |
| COc1cc(CN2C(=O)NC(=O)C3(Cc4cc(C)ccc4N(C)C3)C2=O)cc(OC)c1 (centres undefined) | inconclusive [cytotoxic, partial curve] |
| CCCOP(=O)(c1ccc(N(C)C)cc1)C(O)c1ccc(Cl)cc1Cl (centres undefined) | inconclusive [cytotoxic, single point] |
| CC(C)OCCCNC(=O)c1c(N)n(Cc2cccs2)c2nc3ccccc3nc12 | inconclusive [cytotoxic, single point] |
| COc1ccccc1N1C(=O)NC(=O)/C(=C\c2cnn(-c3ccccc3)c2)C1=O | inconclusive [cytotoxic, single point] |
| NC(=O)OCCCc1ccccc1 | inactive |
| CC(C)NS(=O)(=O)c1ccc(OCC(=O)N2CCN(Cc3ccc4c(c3)OCO4)CC2)c(Cl)c1 | inconclusive [cytotoxic, single point] |
| Cc1ccccc1N1CCN(Cc2c[nH]c3ccccc23)CC1 | active: 1.26 µM |
| Cc1cc(C)c(C(=O)N2CCC3(CC2)OCCO3)c(C)c1 | inactive |
| Cc1ccnc2c1NC(=O)c1cccnc1N2C1CC1 | inconclusive [cytotoxic, partial curve] |
| CN(C)CCC=C1c2ccccc2CCc2ccccc21 | active: 23.1 µM |
| OC1(c2ccccc2F)CC2CCC(C1)N2CCN1CCOCC1 (centres undefined) | inconclusive [cytotoxic, partial curve] |
| Cc1ccc2c(c1)C1CN(C)CCC1N2C(=O)/C=C/c1ccc2c(c1)OCO2 (centres undefined) | inconclusive [cytotoxic, single point] |
| CCN(CC)CCNC(=O)c1c(O)c2ccccc2n(Cc2ccccc2)c1=O | inconclusive [cytotoxic, single point] |
